± gives the standard deviation of the averaged measurements. Whole data set: some 33,000 sequences, median “E-score (dimensionless, -0.5 to 0.5)” near -0.046, cut for the highest 2% near 0.36. The list shows a part of the results.

This experiment deals with T1, SpTbr T-box DNA-binding domain (GST fusion).
T1 sequence: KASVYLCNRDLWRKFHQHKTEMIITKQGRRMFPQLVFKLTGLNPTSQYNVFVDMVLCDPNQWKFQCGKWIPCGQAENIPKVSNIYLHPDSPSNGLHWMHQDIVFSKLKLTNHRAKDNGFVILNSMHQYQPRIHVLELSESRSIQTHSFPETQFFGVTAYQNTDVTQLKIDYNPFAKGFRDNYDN
Kind of experiment: PBM E-score of 8-mer (E-score (dimensionless, -0.5 to 0.5)); Tbr is Tbrain of the sea star Patiria miniata (Pm) or the sea urchin Strongylocentrotus purpuratus (Sp); higher = stronger binding preference; most listed sequences are background and not binding sites. The following applies: the construct has about 5 more residues each side. In a few lines:
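Each ungapped 8-mer received an enrichment E-score from the Universal PBM Analysis Suite, averaged over duplicate arrays. The proteins were Tbr T-box DNA-binding domains, covering the whole T-box plus about five flanking residues, fused to GST and expressed in BL21 E. coli at 20 °C before glutathione affinity purification. Universal Agilent oligonucleotide arrays were made double-stranded by primer extension and incubated with 200 nM protein in PBS (pH 7.5). The arrays were then scanned and quantified, and every 8-mer was scored from probe intensities.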
Take AAATTGGG: the “PBM E-score of 8-mer” value was -0.0567 ± 0.012.

For the sequence AGAGGGCC, the “PBM E-score of 8-mer” value is -0.194 ± 0.097.

On to TACTTAGA, for which the “PBM E-score of 8-mer” value amounted to 0.112 ± 0.02.

Turning to ACCAGGCA, the “PBM E-score of 8-mer” value was -0.0942 ± 0.056.

CTAACGCC: the “PBM E-score of 8-mer” value stood at 0.339 ± 0.034.

TACAACCA: the “PBM E-score of 8-mer” value is -0.19 ± 0.026.

In the case of CTTTTATA, the “PBM E-score of 8-mer” value was -0.0282 ± 0.055.

Take ACGAATCC: the “PBM E-score of 8-mer” value was -0.112 ± 0.021.

With AGCTCTCC, the “PBM E-score of 8-mer” value is -0.13 ± 0.019.

Turning to CCGCAGTC, the “PBM E-score of 8-mer” value is -0.204 ± 0.024.

Turning to CCTTACAG, the “PBM E-score of 8-mer” value was -0.053 ± 0.022.

With TTGATCAA, the “PBM E-score of 8-mer” value was -0.102 ± 0.13.

ACGGACGA: the “PBM E-score of 8-mer” value was -0.259 ± 0.011.

For CAGTAACA, the “PBM E-score of 8-mer” value was 0.0948 ± 0.081.

Regarding CCAAGCCC, the “PBM E-score of 8-mer” value was -0.178 ± 0.039.

Consider GTTGCGGA, for which the “PBM E-score of 8-mer” value was -0.0654 ± 0.043.

Take ATGTTTTA: the “PBM E-score of 8-mer” value is -0.115 ± 0.0069.

For the sequence AGCATCTG, the “PBM E-score of 8-mer” value is -0.116 ± 0.028.

Take TAACCTGA: the “PBM E-score of 8-mer” value is -0.0659 ± 0.025.

Consider AGAGAGCC, for which the “PBM E-score of 8-mer” value was -0.273 ± 0.027.

Turning to GTCACCAA, the “PBM E-score of 8-mer” value came out at 0.208 ± 0.011.

Turning to AATGGGGA, the “PBM E-score of 8-mer” value was -0.233 ± 0.012.

As to TGGGGGAA, the “PBM E-score of 8-mer” value was -0.173 ± 0.013.

As to CCACGGTA, the “PBM E-score of 8-mer” value was -0.151 ± 0.022.

ACGCGCTG: the “PBM E-score of 8-mer” value was 0.212 ± 0.04.

Regarding GACACAAC, the “PBM E-score of 8-mer” value came to 0.237 ± 0.01.

On to AAACAGTA, for which the “PBM E-score of 8-mer” value is -0.134 ± 0.028.

GCATATGA: the “PBM E-score of 8-mer” value was 0.0192 ± 0.026.

AATGGGCG: the “PBM E-score of 8-mer” value came to 0.0853 ± 0.015.

Consider AAGAGTTA, for which the “PBM E-score of 8-mer” value is -0.033 ± 0.033.

On to CGAGCCTA, for which the “PBM E-score of 8-mer” value is -0.0103 ± 0.057.

On to CCTTTAGC, for which the “PBM E-score of 8-mer” value was determined as 0.0867 ± 0.017.

As for CATACCGC, the “PBM E-score of 8-mer” value came out at 0.0954 ± 0.022.

On to AGCTCGTG, for which the “PBM E-score of 8-mer” value is 0.0828 ± 0.036.

Turning to GCCTCCAC, the “PBM E-score of 8-mer” value is -0.0279 ± 0.1.

As to ACCGATCC, the “PBM E-score of 8-mer” value is -0.0589 ± 0.03.

For AAACGTTT, the “PBM E-score of 8-mer” value was -0.247 ± 0.024.

In the case of CTGCACGA, the “PBM E-score of 8-mer” value was -0.111 ± 0.086.

For the sequence CTGTGCCC, the “PBM E-score of 8-mer” value was -0.109 ± 0.02.

With AGTGTTCA, the “PBM E-score of 8-mer” value was 0.0725 ± 0.083.

On to GAGGAGAC, for which the “PBM E-score of 8-mer” value was -0.0414 ± 0.035.

On to ACCCGTCC, for which the “PBM E-score of 8-mer” value is -0.195 ± 0.011.

With GAAACCAA, the “PBM E-score of 8-mer” value is -0.048 ± 0.0014.

AAGCGCGC: the “PBM E-score of 8-mer” value amounted to 0.0762 ± 0.0076.

Take ACGTGCTG: the “PBM E-score of 8-mer” value came to 0.182 ± 0.014.

For TCCTAGAA, the “PBM E-score of 8-mer” value is -0.216 ± 0.051.

As to ATAGGGCC, the “PBM E-score of 8-mer” value is -0.189 ± 0.042.

In the case of TCCGGGCA, the “PBM E-score of 8-mer” value is -0.0678 ± 0.044.

As to CCGAGTTC, the “PBM E-score of 8-mer” value was -0.222 ± 0.058.

On to CCTCGATC, for which the “PBM E-score of 8-mer” value is -0.0518 ± 0.012.

For CGATACGC, the “PBM E-score of 8-mer” value came out at 0.0406 ± 0.082.

Consider CACCAATC, for which the “PBM E-score of 8-mer” value came to 0.221 ± 0.011.

On to ACGAGTCT, for which the “PBM E-score of 8-mer” value is -0.094 ± 0.033.

Turning to CTGGCAGA, the “PBM E-score of 8-mer” value was -0.0862 ± 0.012.

With CTACGTCA, the “PBM E-score of 8-mer” value was -0.0328 ± 0.065.

Regarding CACGTTAG, the “PBM E-score of 8-mer” value stood at 0.3 ± 0.018.

GTCAACTA: the “PBM E-score of 8-mer” value is 0.145 ± 0.071.

In the case of ACAGCGGT, the “PBM E-score of 8-mer” value is 0.0363 ± 0.033.

Consider GGCGTTAA, for which the “PBM E-score of 8-mer” value was 0.387 ± 0.0042.

Regarding ATCACGGA, the “PBM E-score of 8-mer” value was 0.0298 ± 0.035.

For CCGTGTCG, the “PBM E-score of 8-mer” value came out at 0.146 ± 0.09.

Take ACAGAGCC: the “PBM E-score of 8-mer” value is -0.143 ± 0.019.

For ACTCGATA, the “PBM E-score of 8-mer” value was found to be 0.182 ± 0.058.

On to CATCGAAA, for which the “PBM E-score of 8-mer” value was -0.181 ± 0.15.

For AATGTCGG, the “PBM E-score of 8-mer” value was 0.012 ± 0.0061.

In the case of CCCCTATA, the “PBM E-score of 8-mer” value is -0.2 ± 0.056.

Consider AATACGCG, for which the “PBM E-score of 8-mer” value was 0.0971 ± 0.084.

On to TATCATCA, for which the “PBM E-score of 8-mer” value was -0.0576 ± 0.018.

Regarding ATATTGGG, the “PBM E-score of 8-mer” value is -0.214 ± 0.0041.

Consider CCAAAGCG, for which the “PBM E-score of 8-mer” value was 0.136 ± 0.035.

As for CATGTCAA, the “PBM E-score of 8-mer” value was -0.00622 ± 0.077.

For the sequence AGTTAACT, the “PBM E-score of 8-mer” value is -0.241 ± 0.042.

Take GAATCAGC: the “PBM E-score of 8-mer” value is -0.196 ± 0.017.

In the case of AATGACCC, the “PBM E-score of 8-mer” value is -0.0829 ± 0.0026.

As for AGAGCGCG, the “PBM E-score of 8-mer” value turned out to be 0.147 ± 0.014.

Regarding ATCTCAAC, the “PBM E-score of 8-mer” value worked out at 0.00654 ± 0.026.

Take ACAGGGTG: the “PBM E-score of 8-mer” value came to 0.34003 ± 2.1e-05.

Take CCCTATTA: the “PBM E-score of 8-mer” value was -0.181 ± 0.052.

CAGGCCAA: the “PBM E-score of 8-mer” value is -0.0765 ± 0.031.

In the case of CAATGAAC, the “PBM E-score of 8-mer” value was -0.00173 ± 0.023.

Regarding ACACCACG, the “PBM E-score of 8-mer” value is 0.332 ± 0.018.

Regarding CTATCGTA, the “PBM E-score of 8-mer” value was -0.131 ± 0.048.

Consider CAATTTTC, for which the “PBM E-score of 8-mer” value is -0.0241 ± 0.045.

AGATCCTC: the “PBM E-score of 8-mer” value was -0.168 ± 0.027.

For ACCATGAG, the “PBM E-score of 8-mer” value was found to be 0.0145 ± 0.03.

As to AGGGGGCA, the “PBM E-score of 8-mer” value is -0.264 ± 0.051.

Source of the values: the supplement of paper PMC4166925.
